This passage reports self-cleavage results from the RNAGym collection of RNA variant scans (doi:10.7554/elife.90254).

B1: OR4K15 (parent)
chain: GUUAACGGUCAUAGGCCAUGGAAACUAGGAGCACCAUUUCGCUGCCAGUGAAGAAAUGAACAAAGAAAAUCUGGGCCAGGCAGGCAUCAAAAGAAAUAGUCUUGCGCUCAACCAGAAAGUCUGUAAUCAUUUUAAGGGUA

Read counts are not given, so values of variants with three or more changes are uncertain.

In the series the parent is B1. Nature of the series: self-cleavage, relative activity (ratio to wild type); higher = more cleavage; in vitro, sequencing; the parent is a self-cleaving ribozyme.
As for A4G G104A U122C, the self-cleavage stood at 0.03. Under A4G A92G A117C stands 0.78; under U3C U26C A60G U108A, 0.08; under U3C U57C A86G A126G U132C, 0.34. Take A4G A59G A114U A118U U124C: the self-cleavage was determined as 0.07.

For the variant A4G A54G U57C A63U U97A, the self-cleavage was determined as 1.75. On to A5G A11G U87A A90G U132A, for which the self-cleavage is 0.91. Under A5G A22G A60G A89G stands 0.58; under A5G A22G A86G, 0.79; under U3C A22U U37C A67G, 1.39. Take A5G A30G A33G A55U: the self-cleavage was 0.96.

For the variant A4G A59G A111G, the self-cleavage was 0.32.

For the variant U3C U124G A134G, the self-cleavage was 0.95. Regarding A5G A56G U87A, the self-cleavage was 0.94. To A4G A30U C76U A111C belongs 0.07. Under A5G A36G A51U U97C stands 0.76.

As to U3C A47G A54G A111G A117G, the self-cleavage came to 0.03. In the case of U3C U97C U102C A126G, the self-cleavage is 0.76. To A5G A24G A27G A135U belongs 0.12; to A5G A55G A114U U122C, 0.03; to A5C A59G U87A U120G, 1.45. To A4G U57C A59G A129G belongs 0.3. For U3C A47G A90U U130C, the self-cleavage was found to be 0.44. For A4G U9C A24G A47G A51U A56G U70C U108C, the self-cleavage was 0.08. On to A5G A30G A56G A69G A91G A110G U132C, for which the self-cleavage worked out at 0.09. To U3C A24G A54U G73U belongs 0.18; to A4G A11G U131C, 0.79. In the case of A4G U9A A11G A60G A92G A95G A135U, the self-cleavage amounted to 1.62. Under U3C U39C A91G A94U stands 0.83. To A4G A54C U132C belongs 0.76.

For the variant U3C A11G A82G, the self-cleavage was 0.76. To A4G A56G A63G U102C A116G belongs 1.87; to A5G A13G U37C C45U A51G A52G U120C, 1.21; to A5G A27G G31A A90U, 1.25. For A4G G7U A89G A135G, the self-cleavage turned out to be 1.54. For A5G A24G G58A U70C A82G, the self-cleavage worked out at 0.2.

For the variant U3C U9C A55G, the self-cleavage worked out at 1.31. Take U3C A11G A118G U120C: the self-cleavage was 0.23. To A5G A52G U108C belongs 0.13; to A5G A30U C121U, 1; to A5G A51G A66U U127C, 0.76. Under A4G A5G U38C A62G A69G stands 1.05. Take U3C A33G A91G: the self-cleavage came out at 0.6. A5G A23G U87C A111G U127C A129U: the self-cleavage worked out at 0.02. Under U3C U26C A63G stands 1.3; under A5G A66G U131C, 1.62. Under A4G U26C A47U A54G G138A stands 0.69. To A4G A23G U49C belongs 0.22; to U3C A51U U70C C81U, 0.33; to A4G A5G U38C U131C, 1.98. As to A5G A33G A47U A54G A64U C77U U102C U108C, the self-cleavage worked out at 0.04. As for U3C U70C A95G U102G A116C, the self-cleavage came to 0.19. Under A5G A55G A67G stands 0.49; under A5G A51G A59G G93U, 0.99; under A4G U43A A78C A91G U131A, 0.18.

For A5C A22G A66G A69G, the self-cleavage is 1.56.

For U3C U108C A125G, the self-cleavage was determined as 0.04. In the case of A4G U26C U37A C85U U132A, the self-cleavage was 0.83. To U3C A11U A95G belongs 1.55; to A5G A68G A114U, 0.17; to A5G A47G U49G A60U C88A, 1.59. Turning to A5G A27G A59U A68G, the self-cleavage amounted to 0.94. As to A5G A60G A68G, the self-cleavage stood at 1.14. In the case of A5G A18U U39C A67G U87A A94G, the self-cleavage came to 0.98. Consider A5G A23G A52G A94G, for which the self-cleavage was found to be 0.69. Under A4G A23G A51U stands 2.29. With U3G A82U U139C, the self-cleavage is 0.42. To U3C C34U U39C belongs 1.53; to U3C U9C A60G, 1.2; to A5C A68G A114G U120C U127C, 0.11. On to U3G U37C A78U U108C A129U, for which the self-cleavage came to 0. Consider A4G G15A A62C A82G A98G A118G, for which the self-cleavage turned out to be 0.16. In the case of U3C C85G A94G U131G, the self-cleavage was found to be 0.18. To A4G A23G U39C A135U belongs 0.34; to U3C U39C G50A U57C A91G A110G, 0.09.

Consider A5C A56U A78G U87C A92G U130C G137U, for which the self-cleavage worked out at 0.2. Take A4G A11G A63G A78G: the self-cleavage was found to be 0.31. As for A4G U87A A91G, the self-cleavage turned out to be 1.81. Regarding A4G U19C U26C, the self-cleavage worked out at 0.68. To A4G U12C A54U A91G U122A belongs 1.14; to U3C A33G A118G, 0.64. To A4G U43A A59G A62G U100C belongs 0.89; to A5G A18G C40A A96C, 1.02. Under A5G A33C A64G A90G stands 0.99; under U3C G28U U39A A59G G79A, 0.15; under U3G A23G A24U C121U U132C, 0.77. As for A4G A5G C40U A47U A67G U87C, the self-cleavage turned out to be 0.52. As to A4G A92U A96U A129G, the self-cleavage was 1.58. Under A5C U39G A66G A126G C128U A129G stands 0.33; under U3C A11G G84A, 1.39; under U3C U49C A51G A78U U87A, 0.34. Under A5G A22G U38C A86U U103C stands 1.08; under U3C A22G A135G, 0.39. U3C A62G A96G: the self-cleavage is 0.92. Under A4G G74A A78U G93U stands 0.21; under A5G A27U A82G A92G, 0.98; under A5G A52G A68G G84A U87C, 0.93. On to A4G A78C C85U, for which the self-cleavage is 0.3. To A5G A56G A67G A94G belongs 0.62; to A5G A47U A67G A78G A86C A92G A140G, 0.13; to A4G A23G G83A U87C U127A, 1.96. Under A4G A5G A24G A51G A60G A63G A82G A89U U108C stands 0. To A4G A78G A92G belongs 0.43; to U3C A11G A89G, 1.54. Regarding A5G A66G U72C, the self-cleavage amounted to 0.23. For A4G U43C A52G A111G, the self-cleavage worked out at 0.13.

For A5G A33G U39C, the self-cleavage was found to be 0.97.

For the variant U3C A18G A94G, the self-cleavage was 1.28. Regarding A4G A36G U87C A89G U102A U130C U139C, the self-cleavage is 0.24.

For A5G A23G U38C A96G U120C A126G, the self-cleavage is 1.01. Regarding A4G A54G U132C, the self-cleavage was determined as 1.16.

On to A4G U38C C77U, for which the self-cleavage is 1.15. Under A5G A22G A51G A60U U122A stands 1.59; under A4G G41U A68G, 0.2. Turning to A4G A11C A18G A22U, the self-cleavage stood at 0.88. Under A4G A11G A110C stands 0.35; under A5C U37C A47U U49C A114G, 0.14; under A5G A51G A54G A55G, 1.18. As for A5G A33G A52G C128A, the self-cleavage stood at 1.07. With U3C A30G A67G U122C, the self-cleavage worked out at 1.05.

For the variant A5G A66C A117G, the self-cleavage came out at 0.73. As for A4G U43C A55G A92G, the self-cleavage came out at 0.7.

On to A4G A47G A82G A98U, for which the self-cleavage turned out to be 1.41. Under A4U U12A A118G stands 0.65; under A4G A110G A140C, 0.26; under U3G A56G U108A, 0.07. To A4G U43A A55G belongs 1.28; to U3C U9A A33G A90G A114U, 0.05. For the variant U3C A59U A98U U122C, the self-cleavage stood at 1.25. Under U3C A63G A66G A78U U103C stands 0.2. A4G A52G A54U U100C A110G: the self-cleavage was 0.36. To A5C U49C A66U U100C A114U A117U U132C belongs 0.08. Take A5G A47G A59G A96G: the self-cleavage stood at 0.61. To A4G A63G U127C belongs 0.43; to U3C A60G A78G U97A, 0.25; to A5G A51U C77A U103C, 0.44. For the variant A4G U12C A96C A111G, the self-cleavage is 0. Under A5G A64U U127C U131C stands 0.49; under U3C A54G A60G A114G, 0.35. With A5G A24G U38C U87C, the self-cleavage came to 1.45. With A5C A62G A89G A94U, the self-cleavage came out at 1.5.

In the case of A4G U49G A68G U70C U103C U127A, the self-cleavage stood at 0.37. Under A5G A36G A59G A92G A94G A114G A126G U133C stands 0.32. Turning to A4G A27C A62G A64G C105U, the self-cleavage is 0.14. To A5G A11U U49C belongs 1.02. For U3C C121U A140G, the self-cleavage is 2.67. In the case of U3C A55G A64G A78U A95G C121U A125U U131C, the self-cleavage came to 0.63. To A4G A23G U49C U72C G123A A126C belongs 0.26; to A4G A52G A63G U87A U132A, 1.99; to A4U A91G A94G U103C A110G, 0.07.

Regarding U3C U87C A91G U103C, the self-cleavage amounted to 0.3. Regarding A4G A11G A56G A134G G138C, the self-cleavage came to 0.85. As to A4G A18G A56G, the self-cleavage turned out to be 2.2. Regarding A5G A24G U39A A90U A98G U103C U122A, the self-cleavage was 0.22. To U3C U9C U19C G44C A82G U100C belongs 0.88; to A5C A118G U122A A135U U139C, 0.87. Under A5G A22G C71U A78U U122C A125G stands 0; under A4G A54G U70A, 0.68. In the case of A5G A63G A134U, the self-cleavage came out at 1.1. Turning to A5C A22G A64G U127C, the self-cleavage was determined as 0.82. To A4G A111G U131C U133A belongs 0.02. Take A5G A54G A56G A78U U127C: the self-cleavage came out at 0.11.

With A4G A36G A56G A95G U108C G115A, the self-cleavage was found to be 0.03. Under U3C U9C U37C A67G stands 1.01; under A4G A52G A59G A63G U72A U87A, 0.43.

On to A5G A60G A66G U97C U108C A116G, for which the self-cleavage is 0.

With A5G A36U A135G, the self-cleavage turned out to be 1.03.
